Assay results reported in PubChem BioAssay AID624417 (National Center for Advancing Translational Sciences (NCATS), 2012).
Hit rate of the full screen: of about 410,000 compounds, about 6,400 (1.6%) were called active. Inconclusive means that the source gave no clear call. Such entries were picked first, then a sample of the others. The call rests on the fitted dose curve; in most records, active means well fitted inhibition curve with a large enough effect; inconclusive means small, poorly fitted or top-dose-only effect; inactive means no such curve, though single readings can be large or run the other way. Potencies of inconclusive entries are left out as doubtful fits.

target: Glucagon-like peptide 1 receptor (Homo sapiens) (UniProt P43220); experiment: qHTS of GLP-1 Receptor Inverse Agonists (Inhibition Mode); settings: HEK293 GLP-1R CRE-luciferase, luminescence, 24 h, GLP-1R form is constitutively active; series mostly up to 38.3 µM; further: nearly all actives have a fitted effect of over 55% in size
Sequence of UniProt P43220 (P43220 whole entry, looked up): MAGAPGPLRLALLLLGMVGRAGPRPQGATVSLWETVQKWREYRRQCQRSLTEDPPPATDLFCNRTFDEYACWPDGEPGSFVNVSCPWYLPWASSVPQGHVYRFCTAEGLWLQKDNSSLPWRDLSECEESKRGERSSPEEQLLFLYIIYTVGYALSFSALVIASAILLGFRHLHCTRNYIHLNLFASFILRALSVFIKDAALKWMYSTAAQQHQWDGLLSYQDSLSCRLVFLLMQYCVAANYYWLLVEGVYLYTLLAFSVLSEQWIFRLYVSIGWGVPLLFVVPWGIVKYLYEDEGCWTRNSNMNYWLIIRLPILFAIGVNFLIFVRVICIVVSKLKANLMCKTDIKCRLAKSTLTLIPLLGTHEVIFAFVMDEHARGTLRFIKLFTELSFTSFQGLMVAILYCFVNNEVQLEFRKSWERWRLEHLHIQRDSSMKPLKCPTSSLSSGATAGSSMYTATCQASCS
Outline: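 Stable HEK293 clone (constitutively active GLP-1R + cAMP-response luciferase); 200 cells/uL plated, 12 h pre-culture, compound 24 hr, 37 deg C/5% CO2; detection reagent 12 min RT; luminescence.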
Potency means the concentration at half of the fitted maximal effect; tags describe the fitted curve by direction and shape.

| Structure (SMILES) | Potency |
| --- | --- |
| COc1ccc(NC(=O)CSCC(=O)Nc2ccccc2N2CCCCC2)cc1 | inconclusive [inhibitor, single point] |
| Cc1cc(C)c(NC(=O)C(C)c2cccc(C(=O)c3ccccc3)c2)c(C)c1 (centres undefined) | inconclusive [inhibitor, single point] |
| Cc1cccc(N(CC(=O)NC2CCCC2)C(=O)c2csnn2)c1C | inactive |
| CCN(CC)CCn1c(NCc2cccc(OC)c2)nc2ccccc21 | inconclusive [inhibitor, single point] |
| O=C(CC(C(=O)O)c1ccc(Cl)cc1)c1ccccc1 (centres undefined) | inactive |
| O=C(NC(=S)Nc1ncc(Br)cc1Br)c1ccccc1 | inconclusive [inhibitor, single point] |
| O=C(Cc1ccccc1)NNC(=O)Nc1cccc(Cl)c1 | inconclusive [inhibitor, single point] |
| COc1cc(CNC2CCCCCCC2)cc(Br)c1OCC#N | inconclusive [inhibitor, single point] |
| COc1cc(NC(=O)C2CCCCC2)c(OC)cc1NC(=O)c1ccco1 | inconclusive [inhibitor, partial curve, poor fit] |
| CCN(C(=O)c1cnc(OC)cc1C(F)(F)F)c1ccc(Cl)cc1Cl | inconclusive [inhibitor, single point] |
| S=C(NCCCc1ccccc1)Nc1ccccc1 | inconclusive [inhibitor, single point] |
| O=C(O)CC(CC(=O)Nc1ccc(F)c(Cl)c1)c1ccc(Cl)cc1Cl (centres undefined) | inconclusive [inhibitor, single point] |
| COc1ccc(C)cc1NC(=O)c1cc(S(=O)(=O)N2CCCCC2)c[nH]1 | inactive |
| Cc1ccc(S(=O)(=O)N2CCCC2CNC(=O)C(=O)NCc2cccs2)cc1 (centres undefined) | inconclusive [inhibitor, partial curve, poor fit] |
| CCOc1ccc(NC(=O)CC2C(=O)N(c3cccc(C)c3)C(=O)N2Cc2cccs2)cc1 (centres undefined) | inactive |
| Cc1cc(C)c(C(N)=O)c(SCC(=O)c2ccc(Cl)cc2)n1 | inconclusive [inhibitor, single point] |
| CCOc1ccc(CN(CCc2ccc3c(c2)OCO3)Cc2cc(OC)c(OC)cc2OC)cc1 | inconclusive [inhibitor, single point] |
| CCCCN1CC(c2nc3ccccc3n2CCCCOc2cccc(C)c2C)CC1=O (centres undefined) | inconclusive [inhibitor, single point] |
| CCN1C(=O)[C@H]2[C@@H](c3ccc(-c4ccccc4)c(OC)c3)N[C@@](CC(C)C)(C(=O)OC)[C@H]2C1=O | inconclusive [inhibitor, partial curve, poor fit] |
| COc1ccc2c(CNCCc3cccs3)c(C(=O)O)n(Cc3ccc(F)cc3Cl)c2c1 | inactive |
| CCCc1ccc(S(=O)(=O)Nc2ccc(C)c(NS(C)(=O)=O)c2)cc1 | inconclusive [inhibitor, partial curve, poor fit] |
| Cc1ccc(NC(=O)CSc2ccc3c(c2)OCCO3)c(O)c1 | inconclusive [inhibitor, single point] |

| Structure (SMILES) | Potency |
| --- | --- |
| COc1cccc(CC(=O)Nc2nc3c(s2)C(=O)CC(C)(C)C3)c1 | inconclusive [inhibitor, partial curve, poor fit] |
| COc1ccc(NC(=S)NNc2ccc(S(=O)(=O)Nc3ccccc3C(=O)O)cc2[N+](=O)[O-])cc1 | inconclusive [inhibitor, single point] |
| CCN(CC)S(=O)(=O)c1ccc(NC(=O)C2CC(=O)N(c3ccc4c(c3)OCCO4)C2)cc1 (centres undefined) | inconclusive [inhibitor, single point] |
| O=C(CSc1nc2ccccc2o1)NCc1ccc2c(c1)OCO2 | inconclusive [inhibitor, single point] |
| CCN(CC)S(=O)(=O)c1ccc(N2CCOCC2)c(NC(=S)NC(=O)c2ccco2)c1 | inconclusive [inhibitor, single point] |
| CCCSC(=S)c1c(C)[nH]n(-c2ccccc2)c1=O | inconclusive [inhibitor, partial curve, poor fit] |
| Cc1cc(C)n2[nH]c(=O)c(N=Nc3ccc(S(N)(=O)=O)cc3)c2n1 | inconclusive [inhibitor, partial curve, poor fit] |
| Fc1ccc(-c2csc(Nc3ccccn3)n2)cc1 | inconclusive [inhibitor, partial curve, poor fit] |
| COC(=O)c1c(N)n(-c2ccc(OC)c(OC)c2)c2nc3ccccc3nc12 | inactive |
| NC(=O)COC(=O)c1oc2ccccc2c1CSc1ccc(Cl)cc1 | inconclusive [inhibitor, partial curve, poor fit] |
| O=C(/C(=C/c1ccc(Cl)cc1)c1nc2ccccc2[nH]1)c1cccs1 | active: 4.47 µM |
| Nc1nc2ccc(S(=O)(=O)N3CCCCC3)cc2s1 | inactive |
| COc1ccc(OC)c(NC(=O)[C@H](CSCc2ccccc2)N2Cc3ccccc3C2=O)c1 | inconclusive [inhibitor, single point] |
| CC(NC(=O)OC(C)(C)C)C(=O)Oc1cc2oc(=O)cc(-c3ccccc3)c2cc1Cl (centres undefined) | inconclusive [inhibitor, single point] |
| CC(C)N(Cc1ccccc1)C(=O)COC(=O)c1ccccc1SCC(=O)N1CCCC1 | inconclusive [inhibitor, partial curve] |
| COC(=O)c1cc2sc(Cl)cc2n1CC(=O)Nc1cc(C)cc(C)c1 | inactive |
| CCCC(=O)Nc1ccc(C(=O)N/N=C/c2ccc([N+](=O)[O-])o2)cc1 | inconclusive [inhibitor, full curve, poor fit] |
| COc1ccccc1CN1CC(C(=O)NCCC2=CCCCC2)CCC1=O (centres undefined) | inconclusive [inhibitor, single point] |
| CCCCCCCCN1[C@@H](CC(=O)O)c2ccc(C(F)(F)F)cc2S1(=O)=O | inconclusive [inhibitor, single point] |
| O=[N+]([O-])c1ccc(NC(=S)N2CCc3ccccc3C2)cc1 | inconclusive [inhibitor, single point] |
| N#CCC(=O)Nc1ccc(C(=O)OCC(=O)N(C2CCCCC2)C2CCCCC2)cc1 | inconclusive [inhibitor, partial curve] |
| COc1ccc(CCC(=O)Nc2cc(S(=O)(=O)N3CCCCC3)ccc2N(C)C)cc1 | inconclusive [inhibitor, single point] |

| Structure (SMILES) | Potency |
| --- | --- |
| CCC(=O)N1CCc2cc(CNC(=O)c3ccc(F)cc3)ccc21 | inactive |
| COc1ccc(OCc2cc(C(=O)NC(C)Cn3cncn3)no2)c(Cl)c1 (centres undefined) | inconclusive [inhibitor, partial curve, poor fit] |
| Cc1ccc(S(=O)(=O)c2c(N)n(NC(=O)c3ccco3)c3nc4ccccc4nc23)cc1 | inactive |
| Cc1ccc(C(=O)N2c3ccc(F)cc3CCC2C)o1 (centres undefined) | inconclusive [inhibitor, single point] |
| NC(Cc1ccc(Cl)cc1)c1csc(Nc2ccc(C(=O)c3ccccc3)cc2)n1 (centres undefined) | inconclusive [inhibitor, partial curve, poor fit] |
| O=c1cnn(-c2ccc(Cl)cc2Cl)c(-c2ccccc2)c1 | inconclusive [inhibitor, partial curve, poor fit] |
| CC1CCC2(CC1)NC(=O)N(CC(=O)Nc1ccc3c(c1)OCO3)C2=O (centres undefined) | inconclusive [inhibitor, partial curve, poor fit] |
| COc1ccccc1NC(=O)Cn1cc(C(=O)c2ccco2)c2ccccc21 | inconclusive [inhibitor, partial curve, poor fit] |
| Cc1ccc(-c2nc3sccn3c2Nc2ccc(C)c(C)c2)cc1 | inactive |
| CCN(CC)CCCNC(=O)CC1Sc2ccccc2NC1=O (centres undefined) | inconclusive [inhibitor, partial curve] |
| CC(=O)c1cccc(CN2CCN(Cc3ccc(F)cc3)C(CCO)C2)c1 (centres undefined) | inactive |
| COC(=O)[C@@]12C[C@@H](CC(=O)NCc3ccc(C)o3)C(=O)N(CCc3ccc(OC)c(OC)c3)C1=CCC(C)(C)C2 | inactive |
| O=C(NC1CCCCC1)C(=O)c1c(-c2ccccc2)[nH]c2ccccc12 | inconclusive [inhibitor, single point] |
| O=c1c2ccccc2nc(/C=C/c2cccnc2)n1CCc1ccccc1 | inconclusive [inhibitor, single point] |
| C/C=C\C(=O)Nc1cccc(C2=NOC3(C2)C[C@H](C(N)=O)N(C(=O)/C=C/CC)C3)c1 (some centres undefined) | inactive |
| CCOc1ccc(N(CC)C(=O)c2cc3c(s2)-c2ccccc2OC3)cc1 | inconclusive [inhibitor, partial curve, poor fit] |
| O=C(NCCc1cccs1)C1CC(c2ccccc2F)=NO1 (centres undefined) | inactive |
| COc1ccc(-c2csc(C(O)c3ccc(F)c(OC)c3)n2)cc1 (centres undefined) | inconclusive [inhibitor, single point] |
| Cc1ccc(SCCNC(=S)Nc2ccc(C)cc2C)cc1 | inconclusive [inhibitor, partial curve, poor fit] |
| Cc1ccc(-c2csc(C(C)(O)c3cccc(F)c3)n2)cc1C (centres undefined) | inconclusive [inhibitor, single point] |
